Assay results: the RNAGym collection of RNA variant scans (doi:10.1101/gad.245936.114)
Variants at the floor of the assay are shown more often than the library holds them.

B1: tRNA (parent)
chain: CUCUCGGUAGCCAAGUUGGUUUAAGGCGCAAGACUUUAAUUUAUCACUACGAAAUCUUGAGAUCGGGCGUUCGACUCGCCCCCGGGAGAUUUUUUCCUCGAGCAA

Variants of: B1
Assay: nonsense suppression (GFP-seq) (ratio to wild type); higher = more function; SUP4oc tRNA, yeast GFP reporter sort-seq
Summary of the method: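 Sorted GFP/RFP bins of yeast were each Illumina-sequenced with a phred ≥30 cutoff; the cells held a genome-integrated ochre-suppressor tRNA variant from a library with ~3% random mutations, a galactose-driven GFP ochre reporter, and RFP. Culture was in raffinose/galactose medium containing 80 mg/L adenine. Nonsense suppression, termed GFPSEQ, is the median GFP/RFP of the bins weighted by each variant's estimated cell share per bin, relative to the unmutated parent tRNA, for variants reaching ≥100 reads and ≥30 cells.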

Nonsense suppression, ≤ 0.026:
G6C G7C
G6U A9G G10C U58G A89G
G6C G10U A14C G28U U55C A60G
G6U U20G C29A
G6U C34U C72A
G6U U22C U57C C77G
G6U G7C A74G
G6C C81U
G6U U57G A60G G84U
G6C U21A C34U G78C
G6U U55C U70G C83A
G6C U20A U21A C81A
G6C G32A C56A
G6C C82U
G6C C82G
G6U G69C G86U
G6C U17G G69A U71G
G6C U21G C27A G66U A87C
G6U C12U U76C C77G C79A
G6C U20A A54C U71G G88A
G6U G26A A89C
G6C A33G
G6U C80U
G6U C27G A74U
G6U C68G
G6U C68U
G6C A24C
G6U G25U U57G
G6U C81G
G6U G19A A30U
G6U C12A A33G G88A
G6C C80U
G6C C27U
G6U C11G U55C
G6U G10C A23C A60G U63A
G6C U16G G25U U55C
G6U G7A G61C U76C
G6C A60C C75A
G6U U16A A23G
G6U G10U A54U U57C G88A
G6U U57A
G6U G7A A33G A89C
G6U G7C G28U U71C
G6C C34U A62G
G6U G26C U70C A74U G88C
G6C C29G A87G
G6C U8G
G6U G19U C27A
G6U U17A U63C
G6U U21G
G6C A24U C68G
G6U G66U U70A
G6U C27A
G6U G19A U22G
G6U G10U A33G
G6C U71C G73A
G6U A13U G18C U20G
G6U G84A G88C
G6C U58G C80A
G6C G25U U63G
G6U A23U U57G
G6C G19C C34U C75A G88A A89C
G6C A33U C75A C82U
G6U A60G C81G
G6U G28C
G6U G10C U21A A30C G66A
G6U A9U A33U G66U
G6U C11A C29A
G6U U20C A30C C72A C75G C79G
G6U C72A
G6U C72U
G6C A14G C34A C79U
G6U U16C U76A
G6C C56A U76G
G6U U8G
G6C U22G C82U
G6C G84C
G6C U8G U16G U76G C80U
G6U U21G G85A G86C
G6U G10U G28A A33U U70C
G6C U20A
G6C C75A
G6U U35G U71G
G6C U58A C81U A89C
G6C A14C
G6U U8G C77G A89C
G6U A23C C29G G73C
G6U A9U A23C C82A
G6C A87U
G6C G66U
G6U G61C C82U
G6C A62U
G6C U17G
G6C U17C
G6C U58G A60C
G6U A30G C34G G66A
G6U U17G C79U
G6C A54U C75U
G6U G32A C34G G61U U63A
G6C U63C G65A
G6C U58G U63A
G6U C11A C79U
G6U C27U G69U
G6C U57A
G6C G10C
G6C G88A
G6U C56U G59C G65U
G6U A33G
G6C G65A G66U
G6C C34G A54U
G6U G19A
G6U C34G G69U
G6C G69A
G6C G69U
G6C G10A U21A
G6U U8A C12G U17C C29U
G6U G26C A33G U70G C77G
G6U A33G C34U
G6C G86A
G6U A13G U20A G65C
G6U C27G G61C
G6C U57G C64A C83U
G6C U20G G25C C77U
G6C A74C C83U
G6U U16G A54U G86A A89G
G6U U17G A24U C29U C79G
G6C C11U G78A
G6U A23U G67C
G6U A9U C12A G86C
G6U C68G G88A
G6U C29A U63C
G6C G59C
G6U A33G G85U
G6U G7U U22G
G6C U58A
G6U G7A U8A G85A
G6C A13C U63C
G6U G15U C82G
G6U C11G C29G G61C
G6C U20A U21A G61U
G6C A23U U35G
G6C G19A U55C U70G
G6C G73C
G6U A23G U63A
G6U U20A
G6C G86A A87C
G6C G10C A24C A30G C82G
G6U A23U G88C
G6U C12U A60G G84U
G6C A14C G26A
G6C U55A U58G G78C
G6U A89C
G6U G15U C77G G78A
G6U G7C A33U
G6U G10C G25C
G6U C82U
G6U C82A A87U
G6U A23U C56U
G6C U16G
G6U U21A A62C
G6C G66C C81A
G6U A31G C64U C75G
G6C C72U
G6C U70C
G6C G73A C82U
G6U G25C G26A G61A
G6C U57C G73A G84U G88A A89C
